# Assay results reported in the supplement of paper PMC3334620.
# Over roughly 33,000 sequences, “E-score (-0.5 to 0.5)” has its median near -0.021; the highest 2% begin near 0.32. This is one part of the list.
# Biological target: T1, Zap1 (UniProt P47043)
# T1 sequence: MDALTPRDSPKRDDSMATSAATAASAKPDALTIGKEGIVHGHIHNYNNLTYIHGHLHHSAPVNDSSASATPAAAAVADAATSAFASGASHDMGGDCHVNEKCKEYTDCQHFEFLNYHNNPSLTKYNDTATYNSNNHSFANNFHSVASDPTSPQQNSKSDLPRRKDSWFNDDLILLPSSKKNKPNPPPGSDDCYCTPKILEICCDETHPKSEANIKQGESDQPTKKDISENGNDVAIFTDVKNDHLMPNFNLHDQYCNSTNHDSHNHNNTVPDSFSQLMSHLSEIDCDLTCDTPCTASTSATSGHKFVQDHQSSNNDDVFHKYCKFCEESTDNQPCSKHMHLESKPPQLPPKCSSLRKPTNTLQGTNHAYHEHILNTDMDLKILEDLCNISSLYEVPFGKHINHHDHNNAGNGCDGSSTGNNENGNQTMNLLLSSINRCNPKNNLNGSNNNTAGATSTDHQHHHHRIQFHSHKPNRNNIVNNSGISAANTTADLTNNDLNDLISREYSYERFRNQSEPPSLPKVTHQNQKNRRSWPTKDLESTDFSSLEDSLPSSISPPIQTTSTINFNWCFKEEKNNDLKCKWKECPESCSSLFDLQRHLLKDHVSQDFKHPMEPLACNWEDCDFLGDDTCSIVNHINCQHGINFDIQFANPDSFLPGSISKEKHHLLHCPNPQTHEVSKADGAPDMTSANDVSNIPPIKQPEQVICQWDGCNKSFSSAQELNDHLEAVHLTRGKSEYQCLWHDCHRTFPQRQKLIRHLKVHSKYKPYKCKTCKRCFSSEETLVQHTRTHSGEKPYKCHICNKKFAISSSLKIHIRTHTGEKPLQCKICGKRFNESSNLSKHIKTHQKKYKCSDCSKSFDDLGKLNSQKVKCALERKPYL
# Test: PBM E-score (8-mer binding enrichment) (E-score (-0.5 to 0.5)); higher = stronger / more preferred TF binding; most listed sequences are background and not binding sites
# Conditions: protein concentration: 200 nM; construct: GST-full length
# Outline: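 The E-score, a modified Wilcoxon-Mann-Whitney statistic, was computed by the Universal PBM Analysis Suite for every ungapped eight-base word pooled with its reverse complement. Scans behind it were normalised with masliner after bound GST-tagged yeast transcription factors were detected with fluorescent anti-GST. The proteins, at about 100-200 nM, had been applied to universal all-10-mer Agilent arrays made double-stranded by primer extension.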
row,Sequence,PBM E-score
1,GACGATCA,-0.0273
2,GTCATAAA,0.208
3,ACGTCGCG,-0.0819
4,GCTTTGGA,0.107
5,AACATCGC,-0.139
6,CAACTCCA,-0.032
7,AATTGGAT,0.0801
8,CTTATTCA,-0.0462
9,TAATAAGA,0.0456
10,ATTAAAAT,0.149
11,ATCCCTGG,0.00394
12,CGGGACTC,-0.0456
13,AGAAATAT,0.127
14,GACGTGGC,-0.238
15,CGGAGTAA,0.0567
16,AATAACTA,0.209
17,CGTCGAGA,0.037
18,CCATTAAG,0.0835
19,AAAACATT,0.012
20,GCAATGAC,-0.122
21,CGGTAGTC,0.0423
22,TCCCACAA,0.0902

row,Sequence,PBM E-score
1,ATGCAAGA,0.0828
2,GAAGTCTA,-0.256
3,ACCAGGCG,-0.0944
4,AGGATAAT,0.0419
5,AACATCTT,-0.134
6,AGCATCGA,-0.0724
7,TGTGCGAA,-0.16
8,AGTACCCA,0.289
9,CTGCTCCC,-0.267
10,TCCTTAAA,0.15
11,AAAAGCTA,-0.0831
12,ATAAAGTA,0.189
13,CACCCTCA,0.257
14,GGGTTTTA,0.284
15,ACGCCCGG,-0.14
16,CTTTACTC,0.0846
17,AAGTCTTG,-0.0824
18,CGGGGCTA,-0.15
19,CATACATG,-0.0908
20,AGAGGAAG,-0.231
21,CTCCAAGC,-0.0893
22,GGGCGCGA,0.182

row,Sequence,PBM E-score
1,CAGCCTCC,-0.307
2,ACTCGCAA,0.0584
3,ATGTTACG,0.0803
4,CCCTCAGC,-0.105
5,AAATCACG,0.0527
6,CCCGCGGC,0.124
7,GGCCTCAA,0.219
8,AGCCCCGG,-0.0664
9,CGTGAGAC,0.138
10,GATCAACA,-0.00318
11,CACGAGCA,-0.176
12,AAACCTGG,0.109
13,TCCGCAGA,-0.00483
14,ATCCGCGC,-0.00778
15,AATCTCGG,-0.0634
16,AACGGCAT,0.039
17,ACAACAGT,-0.0672
18,CAGATGAC,-0.0153
19,ACTCAAAC,0.133
20,GGGGGGTA,-0.0438
21,AACAATTG,-0.0863
22,CTCAGCGC,-0.28

row,Sequence,PBM E-score
1,GACTTACC,0.066
2,GGCCCCCA,-0.0538
3,CTACTAGC,0.079
4,ACGACCCC,0.219
5,GATGCTGA,-0.296
6,GACGCTAC,-0.0985
7,ACGGAAAG,0.0577
8,TGTCACAA,0.0989
9,CTTACCAA,0.0782
10,CTATACCC,0.304
11,ACTAACCT,0.318
12,AATGAATA,0.0228
13,GTACCGCA,0.383
14,CGGACGAG,-0.067
15,GCCTGTCC,-0.2
16,CCAACACG,-0.095
17,ATCTCCGA,-0.19
18,TCTTCACA,0.0396
19,CGCACAAC,0.122
20,ATGAAGCC,0.0509
